Laboratory results taken from PubChem BioAssay AID1508623 (National Center for Advancing Translational Sciences (NCATS), 2021).
Screen size: about 48,000 compounds; about 450 (0.94%) were called active. The shares of active, inactive and inconclusive entries below differ from those in the screen. Calls come from the whole dose curve; as a rule, active = well fitted inhibition curve with a large enough effect; inconclusive = small, poorly fitted or top-dose-only effect; inactive = no such curve, though single readings can be large or run the other way. Where the call is inconclusive, the potency comes from a doubtful curve fit.

test: Primary qHTS for Identification of Small Molecule Inhibitors of Huntingtin Promoter Activity; settings: HEK293 HTT promoter firefly luciferase reporter (activity 0% = vehicle and -100% = no light), 24 h; activity change, negative = inhibition: at 57.5 µM (top of the series); note: nearly all actives have a fitted effect of over 50% in size
In short: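 HEK293 Fluc reporter, 2,500 cells/well, 24 h pre-culture; cpds up to 57.5 uM final, 24 h 37 degrees C; Dual-Glo, 10 min RT; normalized vehicle = 0%, zero RLU = -100%.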
Potency is the fitted concentration of half-maximal effect; tags give direction and shape of the fitted curve.

Potency, inconclusive:
COc1ccc(CC(=O)NCc2ccc3c(c2)CCN3C(=O)c2cccc(C)c2)cc1 39.8 µM [inhibitor, single point]
Cc1[nH]nc2ccc(-c3cncc(OC[C@@H](N)Cc4ccccc4)c3)cc12 2.43 µM [inhibitor, full curve]
CCOC(=O)N1CCN(Cc2nc3cc(NC(=O)c4ccccc4OC)ccc3n2C(C)C)CC1 12.6 µM [inhibitor, partial curve]
COc1ccc(CNC(=O)c2nc(S(=O)(=O)Cc3ccccc3)ncc2Cl)cc1 39.8 µM [inhibitor, single point]
Cc1ccc(-n2nc3c(=O)n(CC(=O)NCc4ccco4)nc(C)c3c2C)cc1 39.8 µM [inhibitor, single point]
CCOC(=O)c1ccc(NC(=O)CC2C(=O)N(c3ccc(F)cc3)C(=O)N2Cc2ccc(C)cc2)cc1 (configuration not stated) 28.2 µM [inhibitor, partial curve, poor fit]
COc1ccc(Nc2cc(C(=O)NCCCN(C)Cc3ccccc3)c3ccccc3n2)cc1 28.2 µM [inhibitor, single point]
CCOc1cc(C2Sc3ccccc3NC3=C2C(=O)c2ccccc23)ccc1O (configuration not stated) 22.4 µM [inhibitor, partial curve, poor fit]
CC(C)OCCCNC(=O)CSc1c2c(nc3ccc(Cl)cc13)CCCC2 35.5 µM [inhibitor, single point]
CC1CCN(c2oc(-c3ccc(COc4ccc(Cl)cc4)o3)nc2C#N)CC1 28.2 µM [inhibitor, single point]
Cc1cc(C)c2nc(NC(=O)c3ccc(S(=O)(=O)N4CCC(C)CC4)cc3)sc2c1 28.2 µM [inhibitor, single point]
CCOC(=O)c1cc(-c2ccccc2)n(-c2cccc(C(=O)N(C)c3ccc(C)cc3)c2)c1C 31.6 µM [inhibitor, partial curve, poor fit]
CCc1ccc(-c2nc(CSCC(=O)N3CCN(c4ccc(F)cc4)CC3)c(C)o2)cc1 2.24 µM [inhibitor, full curve]

Activity change, negative = inhibition, inactive:
Cc1cccc(NS(=O)(=O)c2ccc3nc(-c4ccccc4)[nH]c3c2)c1C -28.4%
Cc1ccc(-n2c(=O)c3ccc(C(=O)NCc4ccco4)cc3n(Cc3ccc(Cl)cc3)c2=O)cc1 -18.1%
CCCCOc1ccccc1C(=O)Nc1onc2c1CCCC2 -28.9%
CCc1ccccc1NC(=O)c1cc2c(Cl)nc3ccccc3c2s1 6.44%
